Measurements taken from PubChem BioAssay AID504832 (National Center for Advancing Translational Sciences (NCATS), 2011).
About 18,000 (5.8%) of roughly 310,000 compounds were called active. Inconclusive results, whose numbers are uncertain, are shown with a selection of clear calls. Calls follow the shape of the dose curve; as a rule, active = well fitted inhibition curve with a large enough effect; inconclusive = small, poorly fitted or top-dose-only effect, or another doubt; inactive = no such curve, though single readings can be large or run the other way. Potencies of inconclusive entries are left out as doubtful fits.
% is scaled to controls: 0 for no effect and ±100 for the full control effect; potency is read from the fitted curve at half-maximal effect; tags tell the direction and shape of the fitted curve.

Test: Primary qHTS for delayed death inhibitors of the malarial parasite plastid, 48 hour incubation
Details: P. falciparum luciferase growth in erythrocytes; series mostly up to 28.7 µM; activity change, negative = inhibition: at the top concentration
How it was run: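 Luminescence readout; reporter = integrated firefly luciferase in P. falciparum. RBC culture at 2% hematocrit, 0.1% parasitemia final, 37 C/5% CO2; decreased signal taken as growth inhibition.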
In the case of `C=CCSc1nnc(-c2cc3c(-c4ccccc4)nn(C)c3s2)n1C`, the Potency is reported as inconclusive [inhibitor, single point].
In the case of `CCCCn1c(N(CCOC(C)=O)C(C)=O)nc2ccccc21`, the Potency is reported as inconclusive [inhibitor, single point].
In the case of `Cc1cc(C)c(C(=O)OCC(=O)NC(=O)c2ccccc2)c(C)c1`, the Potency is reported as inconclusive [inhibitor, partial curve, poor fit].
For `O=C(Cn1cc2c(n1)CCCCC2)Nc1ccccc1Br`, the Potency was inconclusive [inhibitor, full curve].
For `CCSC1=N/C(=C\c2ccccc2)C(=O)N1c1ccc(OC)cc1`, the Potency was inconclusive [inhibitor, partial curve, poor fit].
For `CC1CC(C)CN(C(=O)C(Cc2ccccc2)n2cccc2)C1` (centres undefined), the Potency was inconclusive [inhibitor, single point].
For `CN(CCCC[C@H](CNCc1ccc(-c2ccccc2)cc1)N1C[C@H](c2ccccc2)N(CCc2ccc(Cl)c(Cl)c2)C(=O)C1=O)Cc1ccc(-c2ccccc2)cc1`, the Potency was inconclusive [inhibitor, full curve, poor fit].
For `COc1ccccc1CCC(=O)OCC(=O)Nc1c(C)nn(-c2ccccc2)c1C`, the “activity change, negative = inhibition” value was inactive: 0.726%.
With `Cc1nnc(SCC(=O)NC2CCCCC2C)s1` (centres undefined) the “activity change, negative = inhibition” value was inactive: 11.1%.
With `Oc1ccccc1Cn1c(-c2ccccc2O)nc2ccccc21` the Potency was inconclusive [inhibitor, partial curve, poor fit].
For `COc1cc(/C=C2/C(=N)N3C(c4ccccc4)=CSC3=NC2=O)ccc1OCC(=O)O`, the Potency was inconclusive [inhibitor, single point].
In the case of `COc1ccc(/C=N/NC(=O)c2cccc(NC(=O)c3ccccc3Cl)c2)cc1OC`, the “activity change, negative = inhibition” value is reported as inactive: 1.35%.
For `O=C(c1ccsc1)N1CCCC(Nc2cccc(F)c2)C1` (centres undefined), the “activity change, negative = inhibition” value was inactive: 0.46%.
For `CSc1cccc(NC(=S)N2CCCN(Cc3ccccc3F)C2)c1`, the Potency was inconclusive [inhibitor, full curve, poor fit].
For `COc1ccc(C2C(C#N)=C(N)Oc3cc4c(cc32)OCO4)cc1` (centres undefined), the Potency was inconclusive [inhibitor, partial curve, poor fit].
In the case of `CCOC(=O)c1c(C)[nH]c(C)c1S(=O)(=O)NCCN1CCN(c2ccccc2F)CC1`, the Potency is reported as inconclusive [inhibitor, partial curve, poor fit].
For `CN1CCC(NCCC(c2ccc(F)cc2)c2ccc(Cl)cc2)CC1` (centres undefined), the Potency was active: 1.65 µM.
For `COc1cc(/C=N/n2cnnc2)ccc1OCc1ccc(C)cc1`, the “activity change, negative = inhibition” value was inactive: 4.23%.
With `O=C(CCN=C1NS(=O)(=O)c2ccccc21)OCc1ccccc1` the “activity change, negative = inhibition” value was inactive: 6.01%.
